# Hit rate of the full screen: of about 310,000 compounds, about 2,200 (0.71%) showed an effect of 50% or more. Effects have a minus sign here. Some of the results follow.
# Biological target: human ether-à-go-go-related gene (hERG) potassium channel (human, UniProt Q12809)
# Test: primary screen, population patch clamp on CHO cells stably expressing hERG
# human ether-à-go-go-related gene (hERG) potassium channel, sequence (Q12809 whole entry, looked up): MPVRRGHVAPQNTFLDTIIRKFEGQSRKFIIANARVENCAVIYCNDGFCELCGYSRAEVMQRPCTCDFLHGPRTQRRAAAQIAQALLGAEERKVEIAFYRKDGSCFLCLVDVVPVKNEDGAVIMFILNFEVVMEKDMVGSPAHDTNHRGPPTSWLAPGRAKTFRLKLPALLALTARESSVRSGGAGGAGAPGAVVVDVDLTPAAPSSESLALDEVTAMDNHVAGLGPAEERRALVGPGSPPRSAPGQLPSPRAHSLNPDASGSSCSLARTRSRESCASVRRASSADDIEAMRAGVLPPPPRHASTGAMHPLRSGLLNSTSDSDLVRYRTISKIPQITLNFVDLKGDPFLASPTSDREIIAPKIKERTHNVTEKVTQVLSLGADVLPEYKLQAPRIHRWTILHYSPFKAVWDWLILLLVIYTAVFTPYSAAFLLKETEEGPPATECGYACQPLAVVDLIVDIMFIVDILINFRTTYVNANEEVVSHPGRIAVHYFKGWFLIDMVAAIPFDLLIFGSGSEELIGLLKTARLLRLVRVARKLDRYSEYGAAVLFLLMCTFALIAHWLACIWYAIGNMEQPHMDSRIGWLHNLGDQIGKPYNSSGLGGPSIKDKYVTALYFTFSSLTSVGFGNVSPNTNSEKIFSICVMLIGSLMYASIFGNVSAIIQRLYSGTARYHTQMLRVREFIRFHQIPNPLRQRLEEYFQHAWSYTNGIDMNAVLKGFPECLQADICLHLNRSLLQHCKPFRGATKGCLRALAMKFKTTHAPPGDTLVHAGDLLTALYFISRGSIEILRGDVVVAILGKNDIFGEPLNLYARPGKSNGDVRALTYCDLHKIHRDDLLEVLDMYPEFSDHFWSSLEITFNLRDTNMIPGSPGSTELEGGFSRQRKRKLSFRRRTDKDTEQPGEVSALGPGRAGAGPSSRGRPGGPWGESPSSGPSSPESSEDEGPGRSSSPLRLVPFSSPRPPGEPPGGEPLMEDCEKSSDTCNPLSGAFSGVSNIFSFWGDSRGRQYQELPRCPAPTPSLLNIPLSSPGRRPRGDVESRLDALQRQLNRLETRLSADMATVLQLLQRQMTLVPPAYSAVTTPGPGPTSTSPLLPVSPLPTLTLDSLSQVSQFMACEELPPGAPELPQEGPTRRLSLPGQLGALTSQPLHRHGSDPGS
row,Compound,"hERG current change (%, negative = inhibition) at 1uM"
1,CCSc1nc2c(c(=O)[nH]c(=O)n2C)n1Cc1ccc(Cl)cc1,13.9%
2,O=C(CCC1CCCCC1)NCc1cccnc1,10.2%
3,CC[N+](CC)(CC)CC.[Cl-],8.39%
4,Cn1cc(/C=C(\C#N)C(=O)Nc2ncc(Cc3cccc(Cl)c3)s2)c2ccccc21,3.39%
5,COc1cccc(OC)c1OCCCCc1c(C)n[nH]c1C.Cl,6.8%
6,O=C(NN1C(=O)c2ccccc2C1=O)C1CC2CCC1C2 (centres unmarked),15%
7,CSCc1ccc(C(=O)N2CCC(CCC(=O)N(C)Cc3ccccc3)CC2)o1,-26.1%
8,COc1cccc(-c2cc3nc4c(c(N5CCC6(CC5)OCCO6)n3n2)CCCC4)c1,5.8%
9,CCOC(=O)C1(CC2CCCCO2)CCN(S(=O)(=O)c2ccsc2)CC1 (centres unmarked),6.56%
10,Cc1cccc(C(=O)O/N=C2/CC3CCC2(C)C3(C)C)c1 (centres unmarked),1.18%
11,COc1cccc(/C=N/NC(=O)c2ccc(=O)n(C)c2)c1O,16.3%
12,COc1ccc(-c2ccc(-c3noc(C(C)C)n3)c(OC)n2)cc1,13.7%
13,C=CCn1c(SCC(=O)c2cccs2)nc2sc(C)c(C)c2c1=O,10.2%
14,Cc1cc(C(=O)N/N=C/c2ccc(-c3cccc([N+](=O)[O-])c3)o2)n[nH]1,8.12%
15,CCCCNC(=O)/C(C#N)=C/c1ccc(-c2ccc(S(=O)(=O)N3CCOCC3)cc2)o1,9.42%
16,CCCc1cc(N2CCOCC2)n2nc(C)c(-c3ccccc3)c2n1,10.1%
17,Cc1[nH]c2c([N+](=O)[O-])cccc2c1C,8.43%
18,Cc1ccc(OCC(=O)Nc2ccc3oc(=O)ccc3c2)cc1C,6.43%
19,COc1ccc(CN2C(=O)c3ccccc3C2=O)cc1,13.5%
20,O=C(O)c1cccc(-c2noc(-c3cccc(Cl)c3)n2)c1,7.46%
21,S=C(NCCc1c[nH]c2ccccc12)NC1CC1,4.2%
22,COc1ccc(C(=O)c2c3ccccc3[n+]([O-])n2CCC[NH3+])cc1.O=C([O-])C(F)(F)F,-3.47%
23,COc1ccc(Nc2c3c(nc4ccccc24)CCCC3)cc1OC,-78%

row,Compound,"hERG current change (%, negative = inhibition) at 1uM"
1,CC1CCC(NC(=O)c2ccc(NC3=NC4CS(=O)(=O)CC4S3)cc2)CC1 (centres unmarked),14.6%
2,C=CCn1c(SCC(=O)c2cccs2)nnc1-c1cccc(OC)c1,12.2%
3,O=C(CN1C(=O)c2ccccc2C1=O)NNC1=NS(=O)(=O)c2ccccc21,8.39%
4,Cc1ccc(S(=O)(=O)N(C)Cc2nc(-c3ccc(Br)cc3)no2)cc1,8.05%
5,COC(=O)c1cc(C)sc1NC(=O)c1ccco1,13.5%
6,COc1ccc(C(=O)OCCOc2ccccc2C(C)=O)c(O)c1,15.2%
7,O=C(Nn1c(O)c(C=C2N=c3ccccc3=N2)sc1=S)c1ccccc1,13.6%
8,CCOC(=O)N/N=C\c1ccc(OC(=O)c2ccc3c(c2)OCO3)cc1,7.59%
9,COc1ccc2oc(C(=O)Nc3nnc(C)s3)c(C)c2c1,-0.337%
10,COc1ccc(OC)c(S(=O)(=O)N2CCN(c3ccccc3OC)CC2)c1,6.97%
11,O=C(CCl)Nc1cn(-c2ccccc2)nc1-c1ccc(F)cc1,0.571%
12,Cc1ccc(Nc2nc(NCCCN3CCOCC3)nc(N)c2[N+](=O)[O-])cc1C,4.15%
13,Cc1ccc2c(c1)n([O-])c1c([n+]2=O)CCCC1,11%
14,NC(=O)CC(NC(=O)c1ccccc1)c1ccc(NCc2ccc(F)cc2)c([N+](=O)[O-])c1 (centres unmarked),-14.3%
15,N#CC1CC(c2ccccc2)Nc2cc(Cl)ccc2N1 (centres unmarked),-1.46%
16,O=C1N(CN2CCN(c3cccc(Cl)c3)CC2)c2ccccc2C12OCCCO2,4.08%
17,CCOC(=O)C1CCN(S(=O)(=O)c2ccc3c(c2)NC(=O)CS3)CC1,-6.03%
18,Cc1cc(C(F)(F)F)nn1CC(=O)Nc1cccnc1,11.6%
19,CCC1(C)Cc2ccccc2C(Nc2c(C)n(C)n(-c3ccccc3)c2=O)=N1 (centres unmarked),13.1%
20,CCCCCCOc1ccc(C(CC(=O)NC)C(=O)O)cc1 (centres unmarked),7.29%
21,COC(=O)c1ccc(C2Nc3ccc(/C(C)=N/NC(=O)C(OC)c4ccccc4)cc3C3C=CCC32)cc1 (centres unmarked),-23.3%
22,O=C(Nc1ccc(N2CCOCC2)c(Cl)c1)c1c(F)c(F)c(F)c(F)c1F,-10.1%
23,Nc1ncnc(NCc2ccccc2)c1[N+](=O)[O-],13%

row,Compound,"hERG current change (%, negative = inhibition) at 1uM"
1,O=C(Nc1ccc(Cl)cc1Cl)N1CCN(c2ncccn2)CC1,0.422%
2,CCCCSCCCNC(=O)C1CCC(CNS(=O)(=O)c2ccc(NC(C)=O)cc2)CC1 (centres unmarked),14.1%
3,COc1ccc(C(=O)C2CCCN(Cc3ccc4nonc4c3)C2)cc1OC (centres unmarked),-11%
4,COC(=O)CCC(=O)NC(=S)Nc1cc(Cl)ccc1Cl,12.5%
5,COc1ccc(C(=O)CSC2=C(C#N)C3(CCCCC3)C(C#N)=C(N)N2)cc1,8.88%
6,Cc1cc(C(=O)Nc2ccc(C(=O)O)cc2)c(C)o1,11.7%
7,CCO[C@H]1OC(C(=O)N2CCN(Cc3ccc4c(c3)OCO4)CC2)=C[C@@H](c2ccc(Br)cc2)[C@@H]1CCCO,4.66%
8,O=C(NCCC1CCCCN1S(=O)(=O)c1ccc(F)cc1)C(=O)NC1CCCC1 (centres unmarked),2.04%
9,Cc1c(Cl)cccc1NC(=O)CS(=O)(=O)c1ccccc1,12.2%
10,COc1ccc2nc(SCC(=O)Nc3ccc4c(c3)OCCO4)[nH]c2c1,-11%
11,CCn1c(SCC(=O)NCc2cccs2)nnc1-c1ccco1,14.2%
12,CC(C#Cc1c([C@@H](C)Oc2ccccc2)nnn1Cc1ccccc1)Oc1ccccc1 (some centres unmarked),14.3%
13,Cc1nc2ccccc2nc1OCc1cccc(Cl)c1,8.53%
14,CC(C)(C)c1cc(CCC(=O)NCc2cccnc2)cc(C(C)(C)C)c1O,14.2%
15,O=C(C(=O)N1CCN(Cc2ccc3c(c2)OCO3)CC1)c1c[nH]c2ccccc12,11.7%
16,CCc1ccccc1NC(=O)c1ccc([N+](=O)[O-])s1,0.861%
17,COc1ccc(-c2[nH]ncc2CNCc2cc(C)n(C)n2)c(F)c1,5.74%
18,CC1(C)NC(=O)N(CC(O)CN2C(=O)CCC2=O)C1=O (centres unmarked),1.23%
19,O=C(c1ccc2c(c1)OCO2)C1CCCN(C(=O)NCc2ccccc2)C1 (centres unmarked),8.12%
20,CS(=O)(=O)N(CC(=O)NC1CCCCCC1)Cc1ccc(Cl)cc1,-0.622%
21,CCC1Oc2ccc(C)cc2N(CC(=O)N(Cc2cccnc2)Cc2cccc(F)c2)C1=O (centres unmarked),12.3%
22,Cn1c(O)c(/C=N/N2CCOCC2)c(=O)[nH]c1=S,13.9%
23,On1cnnc1-c1ccccc1,8.21%

row,Compound,"hERG current change (%, negative = inhibition) at 1uM"
1,S=c1nc(Cc2ccc(Cl)cc2)[nH]c2ccccc12,17.6%
2,C/C(N)=C(/C#N)C(=O)CSc1nc2cc(Cl)ccc2c(=O)n1-c1ccc(C)cc1,12.5%
3,Clc1ccccc1CNc1ncnc2nc[nH]c12,11.1%
4,O=C(CCS(=O)(=O)c1ccccc1)NC1CCCCC1,18.8%
5,COc1ccccc1OCCSc1nc2ccccc2n1CCO,17.3%
6,COc1ccc(C)cc1N(C(=O)c1ccco1)C(C(=O)NC1CCCC1)c1cc(OC)c(OC)c(OC)c1 (centres unmarked),3.94%
7,Cc1ccc(S(=O)(=O)N2CCC(C(=O)OCC(=O)N3CCc4ccccc43)CC2)cc1,-9.78%
8,CCCCn1c(/N=C/c2ccccc2NS(=O)(=O)c2ccc(C)cc2)nc2ccccc21,0.0382%
9,CCOc1ccc(N2CC(C(=O)Nc3cccc(C)c3C)CC2=O)cc1 (centres unmarked),10.6%
10,COc1ccc2c(c1)OC(O)(C(F)(F)C(F)F)CC2=O (centres unmarked),-1.89%
11,CC(C)C(=O)N1CCN(c2ccc(NC(=O)COc3ccccc3[N+](=O)[O-])cc2)CC1,-2.41%
12,COc1ccc(-c2nc3ccc(N4CCCC4)cc3c(=O)[nH]2)cc1OC,9.23%
13,COc1ccc(NC(=O)Nc2nnc(-c3ccccc3F)s2)cc1,17.7%
14,Cc1cc(/C=N/O)c(C)n1-c1cccc(Cl)c1,-0.795%
15,COC(=O)C1=C(c2c(C)noc2C)C[C@@H]2CC[C@H]1N2C(=O)NCc1ccc2c(c1)OCO2,-1.92%
16,COC(=O)c1cccc(C(=O)N2CCC(CCC(=O)NCc3ccc(F)cc3)CC2)c1,6.1%
17,COc1ccc(CCNC(=O)C2CCN(S(=O)(=O)c3cnc[nH]3)CC2)cc1OC,12.2%
18,Cc1ccc(CNC(=O)CN(C2CCCCC2)S(C)(=O)=O)cc1,5.75%
19,S=C1NC2=C(CCCC2=C2SCCCS2)C(c2ccccc2)N1 (centres unmarked),18%
20,COc1ccc(-c2cc(-n3c(C(F)(F)F)nc4ccccc43)n(CCC#N)n2)cc1,9.09%
